Reference: PubChem BioAssay AID686979 (National Center for Advancing Translational Sciences (NCATS), 2013)
Where “and” joins values, the source holds several entries; their conditions need not be identical. Identical values can stand only once. Screen size: about 420,000 compounds; about 50,000 (12%) were called active. Inconclusive results, whose numbers are uncertain, are shown with a selection of clear calls. Calls follow the shape of the dose curve; as a rule, active = well fitted inhibition curve with a large enough effect; inconclusive = small, poorly fitted or top-dose-only effect; inactive = flat fitted curve, though single readings scatter. Potencies of inconclusive entries are left out as doubtful fits.

assay: qHTS for Inhibitors of human tyrosyl-DNA phosphodiesterase 1 (TDP1): qHTS in cells in presence of CPT; conditions: chicken DT40 Tdp1-/-;hTDP1 cells + 20 nM CPT, ATP luminescence, 48 h; activity change, negative = growth inhibition: at 46.2 µM (top of the series); also: nearly all actives have a fitted effect of over 55% in size
In short: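 Chicken DT40 Tdp1-/- cells stably complemented with human TDP1 were seeded at 400 cells/well in medium containing 20 nM camptothecin, exposed to pin-transferred compounds, and grown at 37 °C for at least 48 hr. Viability was read as ATP luminescence.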
% is scaled to controls: 0 for no effect and ±100 for the full control effect; potency is read from the fitted curve at half-maximal effect; tags tell the direction and shape of the fitted curve.

Structure (SMILES)	Potency	activity change, negative = growth inhibition
CC(=O)Nc1ccc(-c2ccnc3c2CC(C)(C(=O)Nc2ccc(Cl)cc2)O3)cc1 (centres undefined)	inconclusive [inhibitor, single point]	
COc1ccc([C@H]2CC(=O)C=C(c3ccc(Cl)cc3C)C2)cc1	inconclusive [inhibitor, partial curve, poor fit]	
COCCN(CCOC)Cc1cc(=O)oc2cc(C)c(C)cc12		inactive: 9.18%
COC(=O)c1ccc(/C=N/N2CCN(Cc3ccc(Cl)cc3)CC2)cc1		inactive: -9.9%
Cc1ccc(-c2nnn(CC(=O)N3c4ccccc4CCc4ccccc43)n2)cc1	inconclusive [inhibitor, single point]	
Cc1cc([N+](=O)[O-])nn1CCCC(=O)Nc1sc2c(c1C(N)=O)CCCC2	inconclusive [inhibitor, single point]	
Cc1ccc(CNC(=O)C(C)n2c(=O)cc(-c3ccccc3)c3c(C)nn(C)c32)cc1 (centres undefined)	active: 18.4 µM	
Cc1cccc(C(=O)Nc2ccc(C(=O)/C=C/c3cccnc3)cc2)c1	active: 5.17 µM	
COc1ccc2cc(CN(CC3CCCO3)C(=O)Nc3ccccc3)c(=O)[nH]c2c1 (centres undefined)		inconclusive: -31.7% [inhibitor]
CN1/C(=C\C(=O)Nc2ccc(Br)cc2)C(C)(C)c2ccccc21	inconclusive [inhibitor, partial curve, poor fit]	
COC(=O)C(Cc1ccccc1)NC(=O)CNC(=O)c1ccc(Br)cc1 (centres undefined)		inactive: 5.54%
O=C(CN(C1CC1)S(=O)(=O)c1ccc(S(=O)(=O)NC2CCCCC2)cc1)Nc1ccccc1	inconclusive [inhibitor, single point]	
CCOC(=O)c1c(C)[nH]c(C(=O)NCCc2ccc(OC)c(OC)c2)c1C	inconclusive [inhibitor, single point]	
Cc1ccc(SC2=C(Sc3ccc(C)cc3)C(=O)c3ccccc3C2=O)cc1	active: 0.92 µM	
CC(C)(C)c1ccc(C(=O)NC(=S)NCc2ccco2)cc1	inconclusive [inhibitor, single point]	
CCN(CC)CC(=O)Nc1sc2c(c1C(=O)c1ccccc1OC)CCC2	active: 16.4 µM	
O=C(Nc1ccccc1)OCCNC(=O)c1cccc(Cl)c1	inconclusive [inhibitor, single point]	
Cc1ccc(-c2nnn3c2nc(NCc2ccc4c(c2)OCO4)c2ccccc23)cc1	inconclusive [inhibitor, single point]	
COc1ccccc1N1CCN(C(=O)c2ccc3c(c2)CCN3S(=O)(=O)c2ccccc2)CC1	active: 9.2 µM and active: 8.2 µM	
COc1ccc(-n2c(=O)c(-c3ccc(Cl)cc3)nc3cnc(N4CCNCC4)nc32)cc1	active: 5.17 µM	
Cc1oc(-c2ccccc2Cl)nc1CSc1nncn2c1cc1occc12	inconclusive [inhibitor, single point]	
COc1ccc(Br)cc1CNC(=O)Cn1ncn2nc(-c3cccs3)cc2c1=O	active: 11.6 µM	
CC1CCCN(c2nc(-c3cccnc3)nc3scc(-c4ccccc4)c23)C1 (centres undefined)	inconclusive [inhibitor, single point]	

Structure (SMILES)	Potency	activity change, negative = growth inhibition
Cc1cnc(SCc2ccccn2)nc1C1CCCN(C(=O)c2cc3ccccc3oc2=O)C1 (centres undefined)	active: 16.4 µM	
C=CCOc1cccc(C(=O)N(C)C2CCCN(Cc3ccccc3F)C2)c1 (centres undefined)	inconclusive [inhibitor, single point]	
O=C(Nc1ccccc1N1CCOCC1)c1cccc2c(Br)cccc12	inconclusive [inhibitor, partial curve, poor fit]	
Cc1noc(C)c1COC(=O)c1ccc(-c2nc3ccccc3s2)s1	inconclusive [inhibitor, single point]	
CN(Cc1nc(-c2cccnc2)no1)S(=O)(=O)c1ccc(Br)cc1	inconclusive [inhibitor, partial curve]	
CCN1CCN(CC(=O)N2N=C(c3ccc(OC)cc3)CC2c2ccc(OC)cc2)C(=O)C1=O (centres undefined)		inactive: -3.42%
COc1ccc(NC(=O)COc2ccccc2Cl)cc1S(=O)(=O)N1CCCCC1	inconclusive [inhibitor, single point]	
COc1ccc(C(CNC(=O)c2cc(C)oc2C)N2CCOCC2)cc1 (centres undefined)	inconclusive [inhibitor, partial curve, poor fit]	
FC(F)(F)c1ccc(/C=N/n2c(C3CCCCC3)n[nH]c2=S)cc1	inconclusive [inhibitor, single point]	
CN(C)Cc1cn(CC[C@@H]2CC[C@@H](NC(=O)Nc3ccccc3F)[C@@H](CO)O2)nn1		inactive: -10.6%
Cc1ccc(N2CCN(c3cc(C)nc4nc(C)nn34)CC2)c(C)c1		inactive: 6.1%
Cc1ccc(CN2C(=O)CCC2C(=O)NC2CC2)cc1 (centres undefined)	inconclusive [inhibitor, single point]	
O=C(Nc1ccc(F)cc1)Nc1csc2ccccc12	active: 23.1 µM	
COC(=O)CSc1nc2cc3c(cc2cc1C)OCCO3		inactive: -18.1%
CC(=O)Nc1ccc(NC(=O)C(C)OC(=O)CNC(=O)c2ccc(-c3ccccc3)cc2)cc1 (centres undefined)		inactive: -9.45%
O=C(NCCc1ccc(F)cc1)C(=O)NCC(c1cccs1)S(=O)(=O)c1ccccc1 (centres undefined)	inconclusive [inhibitor, single point]	
COc1ccccc1CNC(=O)c1ccc(CSc2nc3ccncc3n2Cc2cccc(F)c2)cc1	inconclusive [inhibitor, single point]	
Cc1ccc(OCC(=O)Nc2nc(-c3ccc(Br)cc3)ns2)cc1		inactive: -29.9%
CC1(C)CC(=O)C=C(c2ccc3ncccc3c2)C1	inconclusive [inhibitor, partial curve]	
CCOC(=O)C1C(C(=O)OCC)C1(c1ccccc1)c1ccccc1 (centres undefined)	inconclusive [inhibitor, single point]	
CCCn1ccc2c(OCC(=O)Nc3ccc(OC)c(OC)c3)cccc2c1=O	active: 13 µM	
O=C(CC(c1cccs1)N1Cc2ccccc2C1=O)Nc1cccc(F)c1 (centres undefined)	inconclusive [inhibitor, partial curve, poor fit]	
CCOC(=O)C1CCCN(CCC(=O)Nc2cccc(Cl)c2C)C1 (centres undefined)	inconclusive [inhibitor, single point]	

Structure (SMILES)	Potency	activity change, negative = growth inhibition
CCN(C(=O)CCc1nc(-c2ccccc2F)no1)c1cc(OC)ccc1OC	active: 23.1 µM	
COc1ccccc1N1CCN(C2C(=O)Nc3ccccc3-n3nnnc32)CC1 (centres undefined)	inconclusive [inhibitor, partial curve]	
CCC[C@H]1CN(c2ccc(OC)cc2)C(=O)[C@@H]1CC(=O)Nc1ccccc1	inconclusive [inhibitor, single point]	
CCOC(=O)N1CCN(C(=O)c2cc(COc3ccc(F)cc3F)on2)CC1	inconclusive [inhibitor, single point]	
COc1ccc(S(=O)(=O)N2CCCOC2CNC(=O)C(=O)NCc2ccco2)cc1C (centres undefined)	inconclusive [inhibitor, single point]	
CC(=O)N1NC(=Nc2ccccc2)SC1(C)C	inconclusive [inhibitor, single point]	
CCN(c1ccc(OC)cc1)S(=O)(=O)c1csc(C(=O)N2CCCC2)c1	inconclusive [inhibitor, single point]	
CC(C)Cc1cc(C(=O)N2CCCC(CO)(Cc3ccc(F)cc3F)C2)n[nH]1 (centres undefined)	inconclusive [inhibitor, partial curve]	
CCOc1ccccc1CNc1nc2nc(C)c(CC(=O)OC)c(=O)n2[nH]1		inactive: -0.367%
CCn1c(=O)cc(OCC(=O)NCCc2cccc(C)c2)c2ccccc21	inconclusive [inhibitor, single point]	
COc1cccc(CN(C)C(=O)c2cccc(S(=O)(=O)N3CCN(c4ccc(F)cc4)CC3)c2)c1OC	active: 20.6 µM	
CC1CN(CCC(=O)Nc2ccc3c(c2)CCC3)CC(C)O1 (centres undefined)	inconclusive [inhibitor, single point]	
COC(=O)c1nc2ccc(N3CCOCC3)cc2c(C)c1C(=O)OC		inactive: 3.21%
CC1(C)CC(NC(=O)C(=O)NCCc2ccc(Cl)cc2)CC(C)(C)N1	inconclusive [inhibitor, partial curve, poor fit]	
CCOc1cc2[nH]c(=S)n(CCC(=O)NC3CCCCC3)c(=O)c2cc1OCC	inconclusive [inhibitor, full curve, poor fit]	
CCCNC(=O)C1(C)CCN1C(=O)C1(c2ccccc2)CC1 (centres undefined)		inactive: 0.157%
Cc1ccc(C(C)C)cc1OCC(=O)Nc1ccccc1N1CCCC1	inconclusive [inhibitor, single point]	
Cc1cc(C)n(-c2ccc(C(=O)N3CCc4ccccc43)cc2)n1	inconclusive [inhibitor, partial curve]	
Cc1[nH]nc(-c2cccnc2)c1N=NN(C)C	active: 0.82 µM	
CC1=C(C(=O)Nc2ccccc2C)C2(CCCCC2)C(C(N)=O)C(=S)N1 (centres undefined)		inconclusive: -32.7% [inhibitor]
CC1CCN(c2c(NCC3CCC(C(=O)NCc4ccccc4)CC3)c(=O)c2=O)CC1 (centres undefined)		inactive: -1.82%
CC(C)(NC(=O)c1ccccc1)c1nc2ccccc2s1		inactive: 4.15%
Cc1ccccc1S(=O)(=O)Cc1ccc(C(=O)N2CCN(c3ccccc3F)CC2)o1	inconclusive [inhibitor, single point]	
